Laboratory results published in PubChem BioAssay AID602233 (National Center for Advancing Translational Sciences (NCATS), 2012).
About 170 (0.045%) of roughly 380,000 compounds were called active. Calls come from the whole dose curve; as a rule, active = well fitted inhibition curve with a large enough effect; inconclusive = small, poorly fitted or top-dose-only effect; inactive = no such curve, though single readings can be large or run the other way. The entries are a selection whose mix differs from that of the whole data set.

What follows are compounds tested against Phosphoglycerate kinase, glycosomal (Trypanosoma brucei brucei) (UniProt P07378) (assay: qHTS Assay to Find Inhibitors of Phosphoglycerate Kinase). Conditions: PGK/GAPDH coupled, Kinase-Glo luminescence, 60 min; series mostly up to 57.5 µM; activity change, negative = inhibition: at the top concentration.
Source text: Several species of the Trypanosomatidae family of parasitic protozoans cause a spectrum of diseases throughout the tropical and subtropical world. Sleeping sickness, caused by two subspecies of Trypanosoma brucei, is endemic to areas of sub-Saharan Africa, while Chagas disease, a manifestation of Trypanosoma cruzi infection, is prevalent throughout Central and South America. In addition, many species of Leishmania are responsible for a range of cutaneous and visceral diseases, causing ulcers, destructive lesions and kalaazar, a lethal infection of the viscera. Collectively, these organisms infect 30 million people worldwide (~500 million live in endemic areas), and account for ~130,000 deaths annually. Given their debilitating and prevalent nature, trypanosomatid parasites impose a heavy medical, economic and social burden on entire populations, primarily in the developing world. The problem is further exacerbated by the fact that existing treatments have progressed little in the past 50 years, and current drugs show high toxicity and poor efficacy. […] Blood-stream stages of T. brucei are entirely dependent on glycolysis as a source of ATP, and the tricarboxylic acid cycle and oxidative phosphorylation are both repressed. Glycolysis in axenically cultured T. cruzi, representing the intracellular pathogenic stage, is also essential for these parasites. […] Previous studies have shown that the glycolytic enzyme, phosphoglycerate kinase (PGK), is a viable target for drugs to kill these parasites. […] NIH Molecular Libraries Probe Production Network [MLPCN] NIH Chemical Genomics Center [NCGC] MLPCN Grant: R03 MH093212 PI Name: Malcolm Walkinshaw, University of Edinburgh
3ul of substrate/PGK buffer (columns 1,2,5-48) are dispensed into Greiner white solid bottom 1536-well assay plates; columns 3-4 receive only TEA buffer as 0x PGK controls. Compounds are then transferred via Kalypsys pin tool equipped with 1536-pin array (10nl slotted pins, V&P Scientific, San Diego, CA). Following addition of compound, 1ul of GAPDH (100nM final concentration, all columns) is added to initiate the reaction (this upstream coupling enzyme is necessary for in-well production of PGK substrate, 1,3-bisphosphoglycerate (1,3-BPG), which is unstable and not commercially available). The plates are then incubated at room temperature for 60 minutes. Kinase-Glo Plus reagent is added (2ul) and plates incubated for 10 minutes, before being transferred to a ViewLux high-throughput CCD imager (PerkinElmer) wherein single end-point measurements of luminescence are acquired using a clear filter. All reagents are diluted in an assay buffer consisting of 100mM TEA (pH 7.6), 5mM MgCl2 and 0.01% Tween-20.
Note: nearly all actives have a fitted effect of over 60% in size.
Potency is the fitted concentration of half-maximal effect.

SMILES	outcome	Potency	activity change, negative = inhibition
C[N+]1(C)C2CC[C@H]1CC(OC(=O)C(CO)c1ccccc1)C2 (some centres undefined)	inactive		
N/C(=N\N=C/c1ccc(-c2ccc(O)c(C(=O)O)c2)o1)N[N+](=O)[O-]		active: 10 µM	
C=Cc1ccc(Cn2c(C)c(CNCCc3cc(OC)ccc3OC)c(C(=O)O)c2C)cc1			inactive: 19.7%
COc1ccc(N2C(=O)NC(=O)/C(=C\c3ccc([N+](=O)[O-])s3)C2=O)cc1			inactive: -14.9%
CN(C)[C@@H]1C(=O)C(C(N)=O)=C(O)[C@@]2(O)C(=O)C3=C(O)c4c(O)cccc4[C@@](C)(O)C3[C@H](O)C12 (some centres undefined)		inactive	
CCOc1ccc(C2SCC(=O)Nc3c2c(C)nn3C2CCOC(C)(C)C2)cc1 (centres undefined)			inactive: 19.1%
C[N+]1(C)C2CCC1CC(OC(=O)C(CO)c1ccccc1)C2 (centres undefined)			inactive: -7.21%
CN(C)c1ccc(/C=C/c2cc[n+](C)c3ccccc23)cc1			inactive: -15.2%
COc1ccc(OC)c(-n2c(O)c(C=Nc3c(C)n(C)n(-c4ccccc4)c3=O)c(=O)[nH]c2=S)c1			inactive: 23.4%
COc1ccc(N2C(=O)/C(=C/c3ccco3)C(=O)NC2=S)cc1		active: 12.6 µM	
CCC(C)/C=C(C)/C=C/C1=CC2=C(Cl)C(=O)C(C)(OC(C)=O)C(=O)C2=CO1 (centres undefined)			inactive: -6.36%
COc1ccc(OC)c(N2C(=O)/C(=C/c3ccco3)C(=O)NC2=S)c1		active: 3.55 µM	
COc1cc(/C=N/NC(=O)CN2CCCCC2)ccc1OCc1ccccc1			inactive: 20.5%
O=C(O)c1cccc2c1NC(C(=O)O)C1CC(Sc3ccccc3[N+](=O)[O-])C(Cl)C21 (centres undefined)		active: 11.2 µM	
O=C1NC(=O)N(c2ccccc2)C(=O)/C1=C\c1ccc([N+](=O)[O-])s1			inactive: -28.5%
C[N+]1(C)[C@@H]2CC[C@H]1CC(OC(=O)C(CO)c1ccccc1)C2 (some centres undefined)	inactive		
Cc1ccc(N2C(=O)NC(=O)/C(=C/c3ccoc3)C2=O)cc1		active: 11.2 µM	
Cc1ccc(N2C(=O)NC(=O)/C(=C\c3ccoc3)C2=O)cc1			inactive: -14.6%
CN(C)C1C(=O)C(C(N)=O)=C(O)C2(O)C(=O)C3=C(O)c4c(O)cccc4C(C)(O)C3C(O)C12 (centres undefined)	inactive		
